Measurements as given in PubChem BioAssay AID624417 (National Center for Advancing Translational Sciences (NCATS), 2012).
The whole screen tested about 410,000 compounds, of which about 6,400 (1.6%) were called active. Inconclusive means that the source gave no clear call. Such entries were picked first, then a sample of the others. Calls come from the whole dose curve; as a rule, active = well fitted inhibition curve with a large enough effect; inconclusive = small, poorly fitted or top-dose-only effect; inactive = no such curve, though single readings can be large or run the other way. A potency beside an inconclusive call is a rough fit, not a confirmed value. Peptide text beside a SMILES is read from it. * marks the point of attachment. Cbz = O=C(OCc1ccccc1)*; CH2Cl = ClC*

target: Glucagon-like peptide 1 receptor (Homo sapiens) (UniProt P43220); test: qHTS of GLP-1 Receptor Inverse Agonists (Inhibition Mode); conditions: HEK293 GLP-1R CRE-luciferase, luminescence, 24 h, GLP-1R form is constitutively active; series mostly up to 38.3 µM; note: nearly all actives have a fitted effect of over 55% in size
Sequence of UniProt P43220 (P43220 whole entry, looked up): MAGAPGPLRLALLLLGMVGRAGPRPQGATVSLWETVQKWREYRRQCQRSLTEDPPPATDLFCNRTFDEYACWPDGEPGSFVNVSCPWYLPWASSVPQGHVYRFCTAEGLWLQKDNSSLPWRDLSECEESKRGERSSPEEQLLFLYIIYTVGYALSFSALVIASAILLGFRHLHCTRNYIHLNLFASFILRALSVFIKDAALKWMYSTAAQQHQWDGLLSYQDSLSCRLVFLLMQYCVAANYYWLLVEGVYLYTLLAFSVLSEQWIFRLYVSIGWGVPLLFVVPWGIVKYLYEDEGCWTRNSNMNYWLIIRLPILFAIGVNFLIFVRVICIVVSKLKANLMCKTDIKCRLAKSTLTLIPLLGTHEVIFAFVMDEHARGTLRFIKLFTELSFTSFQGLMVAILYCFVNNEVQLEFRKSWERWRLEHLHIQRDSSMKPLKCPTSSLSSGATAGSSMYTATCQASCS
Summary of the method: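 Inverse agonists were sought by their lowering of basal cAMP reporter luciferase output in HEK293 cells stably carrying constitutively active human GLP-1R, after 24 h compound treatment.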
Potency is the fitted concentration of half-maximal effect; tags give direction and shape of the fitted curve.

Potency, inactive:
O=C(NCC1CCCO1)c1ccc2[nH]c3c(c2c1)CCCC3 (stereo not drawn)
COc1ccc(C(=O)c2nc3c(n2O)CCCC3)cc1OC
CC1CCc2c(sc(NC(=O)c3cc(-c4ccc(F)cc4)on3)c2C(N)=O)C1 (stereo not drawn)
CCN(c1ccccc1)S(=O)(=O)c1cccc(C(=O)NCc2ccccn2)c1
O=S(=O)(Nc1ccccc1)c1ccc(-c2csnn2)cc1
Cc1cccc(NC(=O)C(=O)NCCc2csc(-c3ccc(C(F)(F)F)cc3)n2)c1C
Cc1cc(C(=O)NNC(=S)NCC(C)C)no1
O=C(COC(=O)c1ccccc1Cl)Nc1cccnc1Cl
COc1ccc(C)cc1S(=O)(=O)N(CC(=O)N1CCOCC1)c1cc(C)cc(C)c1
CN(Cc1ccon1)C(=O)CC1C(=O)NCCN1CC1CCCCC1 (stereo not drawn)
COc1ccc2oc(-c3cccc(NC(=O)c4sc5c([N+](=O)[O-])cccc5c4Cl)c3)nc2c1
O=C(/C=C/[C@H]1O[C@@H](n2cnc3c(NC(=O)c4ccccc4)ncnc32)[C@H](O)[C@@H]1O)NCC1CCCCC1
Cc1ccccc1N(CC(=O)NC1CCCCC1)C(=O)CCC(=O)Nc1nccs1
CCOC(=O)CC1CCCCN1C(=O)CCCn1nnnc1CN1CCC(C)CC1 (stereo not drawn)

Potency, active:
Cc1cc(C)c(NC(=O)c2ccc(CNS(=O)(=O)c3cc(C(F)(F)F)ccc3Cl)cc2)c(C)c1 6.31 µM
O=C1CN(C(=O)c2ccc(Br)o2)C(c2ccc(F)cc2)c2cc(Cl)ccc2N1 (stereo not drawn) 3.55 µM

Potency, inconclusive:
O=C(CSCC(=O)c1ccccc1)Nc1ccccc1Cl 28.2 µM [inhibitor, single point]
COc1cc(OC)cc(-c2sc3ccc(OC)cc3c2C#CC2(N)CCCCC2)c1 11.2 µM [inhibitor, partial curve, poor fit]
Cc1ccc(NC(=O)c2ncn(CCCNCCCN(C)C)n2)cc1C 12.6 µM [inhibitor, single point]
CC(C)CC(NC(=O)OCc1ccccc1)C(=O)NC(Cc1ccccc1)C(=O)CCl (stereo not drawn) (Cbz-Leu-Phe-CH2Cl; configuration not given here) 28.2 µM [inhibitor, single point]
CCOc1ccccc1C=C1CCc2ccccc2C1=O 14.1 µM [inhibitor, single point]
CCc1cc(=O)oc2cc(C)cc(OCC(=O)NCCCn3ccnc3)c12 2.51 µM [inhibitor, full curve, poor fit]
N#CC(C(=O)C1CCCCC1)c1nc2ccccc2[nH]1 (stereo not drawn) 11.2 µM [inhibitor, partial curve, poor fit]
COc1ccc2cc(CO)c3cc(OC)c(OC)cc3c2c1 28.2 µM [inhibitor, single point]
CC(C)c1cc(C(C)C)c(S(=O)(=O)N2CCNCC2)c(C(C)C)c1 2.51 µM [inhibitor, full curve]
COc1ccc(C(=O)N/N=C(\C)c2ccccn2)cc1OC 25.1 µM [inhibitor, single point]
COc1cccc(-c2nc3ccccc3s2)c1O 28.2 µM [inhibitor, single point]
O=P(CCc1ccccc1)(c1ccccc1)c1ccccc1 28.2 µM [inhibitor, single point]
O=C(NCc1ccccc1)C12CN(Cc3ccccc3)CC1C(c1cccc([N+](=O)[O-])c1)=NO2 (stereo not drawn) 10 µM [inhibitor, partial curve, poor fit]
NC(=O)c1nsc(C(=O)N(c2ccccc2)C(C(=O)NCc2ccc(F)cc2)c2ccc(O)cc2)c1N (stereo not drawn) 10 µM [inhibitor, single point]
C=Cc1ccc(Cn2c(C)c(C(=O)NCc3ccc(C#N)cc3)sc2=O)cc1 12.6 µM [inhibitor, single point]
CCOC(=O)c1ccc(Nc2ncnc3ccc(C)cc23)cc1 1 µM [inhibitor, full curve, poor fit]
COc1cc(NC(=O)c2ccc(-c3c(C)noc3C)c3ccoc23)cc(OC)c1OC 8.91 µM [inhibitor, partial curve, poor fit]
O=C(COc1ccc(Cl)cc1)N/N=C/c1cccc2cccnc12 28.2 µM [inhibitor, single point]
CCn1c(CNc2nc3ccccc3n2C(C)C)nc2ccccc21 3.55 µM [inhibitor, partial curve, poor fit]
CCN(CC(=O)Nc1ccc(NC(C)=O)cc1)C(=O)c1cc(-c2ccccc2)nn1-c1ccccc1 14.1 µM [inhibitor, partial curve, poor fit]
CC1=Nc2cc(C(=O)NC(C)C)ccc2Sc2ccc(C)cc21 2.24 µM [inhibitor, full curve, poor fit]
Cc1ccc(S(=O)(=O)NC2CCCCCCC2)cc1 11.2 µM [inhibitor, partial curve, poor fit]
CCOC(=O)C1CCCN(C(=O)c2ccc(C(=O)c3ccccc3)cc2)C1 (stereo not drawn) 7.94 µM [inhibitor, partial curve, poor fit]
CCc1ccc2[nH]c3nc(N/N=C/c4cccc(O)c4)nnc3c2c1 5.62 µM [inhibitor, partial curve, poor fit]
C#CCOc1nc(Nc2cccc([N+](=O)[O-])c2)nc(OCC#C)n1 31.6 µM [inhibitor, single point]
CCc1noc(C)c1C(=O)Nc1nc(-c2ccc(Cl)cc2Cl)c(C)s1 3.55 µM [inhibitor, full curve]
OC(c1ccc(F)cc1)c1nc(-c2ccccc2)cs1 (stereo not drawn) 28.2 µM [inhibitor, single point]
Cc1ccc(-n2c(SCC(N)=O)nc3c(c2=O)C2(CCCC2)Cc2ccccc2-3)cc1 2 µM [inhibitor, partial curve, poor fit]
COC(=O)[C@]12CCCCC=C1N(Cc1cccc3ccccc13)C(=O)[C@H](CC(=O)N1CCC(c3ccccc3)CC1)C2 11.2 µM [inhibitor, single point]
CC(CNS(=O)(=O)c1ccc(Br)cc1)CN(C)C (stereo not drawn) 10 µM [inhibitor, single point]
Cc1ccccc1S(=O)(=O)NC(=O)C1(C)CCN1C(=O)c1ccccc1CCc1ccccc1 (stereo not drawn) 20 µM [inhibitor, single point]
COc1ccc(C(C)=O)cc1CSc1ccc(S(=O)(=O)N2CCCCC2)cn1 28.2 µM [inhibitor, single point]
COc1ccc(S(=O)(=O)c2nnn(-c3ccc(C)c(Cl)c3)c2C)cc1 10 µM [inhibitor, single point]
Cc1cc(C)cc(NC(=O)C2CCN(S(=O)(=O)c3cccc(-c4noc(C)n4)c3)CC2)c1 14.1 µM [inhibitor, single point]
Cc1ccc(-c2cn(-c3ccc(Cl)cc3)c(S(=O)(=O)CC(=O)Nc3ccccc3)n2)cc1 12.6 µM [inhibitor, single point]
CC(C)(C)NC(=O)C(c1ccccn1)N(C(=O)c1ccc2c(c1)OCCO2)C1CCCC1 (stereo not drawn) 11.2 µM [inhibitor, single point]
COC(=O)c1[nH]c2ccccc2c1NC(=O)c1ccccc1F 12.6 µM [inhibitor, single point]
O=C(Nc1ccccc1)C1Cc2c(-c3ccc(Cl)cc3)ccnc2O1 (stereo not drawn) 28.2 µM [inhibitor, single point]
CCOC(=O)C1(CCc2ccccc2)CCN(Cc2cnc(N(C)C)s2)CC1 14.1 µM [inhibitor, partial curve, poor fit]
CN1c2ccccc2C(C)(C)C12CC(c1cccc(S(=O)(=O)N3CCCC3)c1)=NO2 (stereo not drawn) 3.16 µM [inhibitor, full curve, poor fit]
COc1ccc(/C=N/Nc2nc(N3CCCCC3)nc(N3CCCCC3)n2)cc1[N+](=O)[O-] 28.2 µM [inhibitor, single point]
Cc1cccc(C)c1Nc1c(-c2ccc(O)cc2)nc2sccn12 12.6 µM [inhibitor, single point]
COc1ccc(S(=O)(=O)NNC(=O)Nc2ccccc2OC)c(OC)c1 28.2 µM [inhibitor, single point]
CCN(CC)CCN(C)C1CCC(c2ccccc2)CC1 (stereo not drawn) 17.8 µM [inhibitor, partial curve, poor fit]
CC(C)N(CCCNC(=O)c1nn(C)c2c1CS(=O)(=O)c1ccccc1-2)Cc1ccccc1 5.62 µM [inhibitor, partial curve, poor fit]
C=CCOC(=O)C1=C[C@@H](C2CCCCC2)C[C@@H](OCc2ccc(CO)cc2)O1 28.2 µM [inhibitor, single point]
Cc1ccc(CN2CCCn3nc(C(=O)NCC(C)c4ccccc4)cc3C2=O)cc1 (stereo not drawn) 14.1 µM [inhibitor, single point]
